# Measurements as given in PMC4336329 (PLoS ONE, 2015).
# About 2,200 (0.71%) of roughly 310,000 compounds showed an effect of 50% or more. Effects have a minus sign here. Some of the results follow.
# Target: human ether-à-go-go-related gene (hERG) potassium channel (human, UniProt Q12809)
# Assay: primary screen, population patch clamp on CHO cells stably expressing hERG
# Sequence of human ether-à-go-go-related gene (hERG) potassium channel (Q12809 whole entry, looked up): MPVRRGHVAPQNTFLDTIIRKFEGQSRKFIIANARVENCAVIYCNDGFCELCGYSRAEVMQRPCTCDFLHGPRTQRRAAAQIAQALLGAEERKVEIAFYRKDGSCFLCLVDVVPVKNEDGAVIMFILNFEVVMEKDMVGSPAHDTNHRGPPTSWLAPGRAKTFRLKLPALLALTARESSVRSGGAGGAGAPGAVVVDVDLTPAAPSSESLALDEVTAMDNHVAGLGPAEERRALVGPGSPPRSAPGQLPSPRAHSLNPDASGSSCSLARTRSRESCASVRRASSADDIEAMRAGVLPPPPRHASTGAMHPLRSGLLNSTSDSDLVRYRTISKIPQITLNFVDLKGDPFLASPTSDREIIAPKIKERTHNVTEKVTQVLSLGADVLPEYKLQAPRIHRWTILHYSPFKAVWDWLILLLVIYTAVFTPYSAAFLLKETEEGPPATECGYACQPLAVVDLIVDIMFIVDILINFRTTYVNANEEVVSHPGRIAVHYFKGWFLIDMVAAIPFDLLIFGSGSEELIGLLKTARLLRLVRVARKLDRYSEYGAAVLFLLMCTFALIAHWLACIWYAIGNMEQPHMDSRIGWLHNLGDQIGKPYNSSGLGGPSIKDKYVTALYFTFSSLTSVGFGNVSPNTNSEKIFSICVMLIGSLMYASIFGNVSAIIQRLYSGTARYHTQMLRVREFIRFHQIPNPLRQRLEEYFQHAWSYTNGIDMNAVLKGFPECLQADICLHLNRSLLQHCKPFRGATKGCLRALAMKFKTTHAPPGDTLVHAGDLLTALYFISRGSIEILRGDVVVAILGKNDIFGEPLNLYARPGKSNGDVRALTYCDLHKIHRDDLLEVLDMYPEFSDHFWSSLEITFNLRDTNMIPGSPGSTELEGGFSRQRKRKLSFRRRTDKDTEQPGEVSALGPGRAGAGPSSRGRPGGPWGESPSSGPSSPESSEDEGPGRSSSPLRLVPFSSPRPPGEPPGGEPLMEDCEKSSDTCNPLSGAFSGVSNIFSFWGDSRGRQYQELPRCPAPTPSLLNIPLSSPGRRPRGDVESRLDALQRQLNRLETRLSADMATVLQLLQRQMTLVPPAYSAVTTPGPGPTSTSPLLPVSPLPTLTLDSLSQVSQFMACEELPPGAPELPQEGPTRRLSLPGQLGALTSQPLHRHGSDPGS
row,Structure (SMILES),"hERG current change (%, negative = inhibition) at 1uM [%]"
1,CCOC(=O)C1=C(C)Nc2sc(C(=O)c3ccc(Br)cc3)c(N)c2C1c1ccc(C(=O)OC)cc1 (centres unmarked),19.7
2,CCn1cc(C(=O)O)c(=O)c2cnc(N3CCN(C(=S)NC(=O)c4ccc(OC)cc4)CC3)nc21,8.66
3,CCOc1ccccc1C(=O)Oc1ccc2ccc(=O)oc2c1,13.7
4,COc1ccc(-c2csc(NC(=O)C3CSC4(C)CCC(=O)N34)n2)cc1OC (centres unmarked),13.3
5,CCOc1ccc(NC(=O)CN(C)Cc2ccc3c(c2)OCO3)cc1S(=O)(=O)N1CCCC1,-8.73
6,CCOC(=O)C(C)Sc1nnc(Cc2cc(=O)[nH]c(=O)[nH]2)n1-c1ccc(Cl)cc1 (centres unmarked),6.6
7,CC1=C(O)C(=O)OC1c1c(Cl)cccc1Cl (centres unmarked),9.87
8,CCCN(CCO)Cc1cccc(Cl)c1,1.92
9,CCCn1c2c(c(O)c(C(=O)NCCCN(CC)CC)c1=O)CCCC2.Cl,-8.64
10,Cn1nc(CC(=O)NC2CCCCC2)c2ccccc2c1=O,0.85
11,O=C(Nc1ccccc1C(F)(F)F)c1ccccc1Br,2.19
12,O=C(NCc1cccc(Cl)c1)c1cccc(OC2CCN(C(=O)C3CC3)CC2)c1,6.93
13,Cc1ccc2nc(N3C(=O)C(O)=C(C(=O)c4ccc(C)o4)C3c3ccco3)sc2c1 (centres unmarked),9.05
14,N#C/C(=C1\CCCN1)c1ccc2ccccc2n1,8.93
15,COc1cccc(C(=O)Nc2nnc(-c3ccc(OC)cc3OC)s2)c1,10.8
16,Cc1ccc(-c2nc(CS(=O)CC(=O)NCc3ccccc3)c(C)o2)cc1 (centres unmarked),-4.18
17,Cc1ccc(S(=O)(=O)NCCN=C(CN2CCOCC2)NS(=O)(=O)c2ccc(C)cc2)cc1,6.4
18,COCCCNC(=O)CN1C(=O)/C(=C/c2ccccc2)Sc2ccccc21,1.6
19,O=C(NCc1ccccc1F)C(c1ccccc1)c1ccccc1,10

row,Structure (SMILES),"hERG current change (%, negative = inhibition) at 1uM [%]"
1,Nn1c(-c2ccccc2)nc2cc(Cl)ccc2c1=O,3.08
2,CC(C)=CC(=O)Nc1nnc(-c2cccnc2)s1,19.9
3,CC1(C)CC(=O)C(C=NCCN2CCN(CCCCS(=O)(=O)O)CC2)=C(O)C1,11.3
4,O=C(Cc1ncc(C(F)(F)F)cc1Cl)Nc1cccc(Br)c1,1.88
5,Cc1ccc(S(=O)(=O)N2CCC(=O)N(CCOC(=O)NCc3ccccc3)CC2)cc1,-7.2
6,c1cnc(N2CCN(c3nc4ccccc4n4cnnc34)CC2)nc1,-7.08
7,O=c1c(C(c2ccc(O)cc2)c2c(O)nc3n(c2=O)CCS3)c(O)nc2n1CCS2,0.171
8,CCn1c(SCC(=O)Nc2nccc(C)n2)nc2ccccc21,8.34
9,CCCn1cnnc1CNC(=O)C1CCC(=O)N(CCc2cccc(F)c2)C1 (centres unmarked),21.5
10,Cc1ccc(NC(=O)c2cccnc2)cc1C,15.5
11,COc1ccc(S(=O)(=O)NCC2CCCN(C(=O)c3occc3C)C2)cc1 (centres unmarked),20.4
12,O=C1CC(c2ccccc2)CC(O)=C1C=NCCN1CCOCC1 (centres unmarked),8.09
13,COc1cccc(CNC(=O)c2nnn(CC(=O)Nc3ccc(C)c(C)c3)c2N)c1,2.54
14,O=C(CSc1ncn[nH]1)Nc1ccccc1C(=O)O,0.493
15,COc1ccc(-c2nn(-c3ccccc3)cc2/C=N/Nc2ccccn2)cc1OC,15.6
16,O=C1OC(C(=O)Nc2ccccc2)Cc2ccccc21 (centres unmarked),13.2
17,Cc1cccc(N2CCN(C(=O)c3csc4ccccc34)CC2C)c1 (centres unmarked),13.2
18,COc1ccc(/C=N/NC(=O)Cc2cccs2)cc1,10.8
19,Cc1c(C(=O)O)cccc1-n1c(C)cc(/C=C2\C(=O)NC(=O)N(c3ccc4c(c3)OCO4)C2=O)c1C,13.9

row,Structure (SMILES),"hERG current change (%, negative = inhibition) at 1uM [%]"
1,COC(=O)CCc1c(COC(C)=O)[nH]c(C(=O)OCc2ccccc2)c1C,16.2
2,COc1ccc(N2CC(C(=O)N[C@@H](C)C(=O)NC(C)c3ccccc3)CC2=O)cc1 (some centres unmarked),2.84
3,Cc1nc(NCc2ccccn2)c2c3c(sc2n1)CCCC3,-3.35
4,Cc1noc(C)c1COc1ccc(CC(=O)NCCc2ccccc2)cc1,9.17
5,Cc1nnc(C)c2c(C)n(C(c3ccccc3)c3ccccc3)c(C)c12,-65.7
6,COC(=O)c1ccccc1NC(=O)CSc1n[nH]c(-c2ccncc2)n1,10.3
7,COC(=O)c1ccccc1OCC(=O)N1CCN(c2ccc(F)cc2)CC1,-13.7
8,COC(=O)C1=C(C)N(Cc2ccccc2)C(=O)N[C@H]1CCc1ccccc1,9.45
9,Cc1cc(C)cc(NC(=O)CN2C(=O)COc3ccc(S(=O)(=O)N4CCCC4)cc32)c1,10.1
10,COC(=O)Cc1c[nH]c2cccc(OCC(O)CN(Cc3ccc([N+](=O)[O-])cc3)C(C)(C)C)c12.Cl (centres unmarked),4.16
11,COc1ccc(S(=O)(=O)N2Cc3ccccc3CC2C(=O)N2CCOCC2)cc1 (centres unmarked),-1.68
12,COc1ccc(Nc2nnc(SCC3CCCO3)s2)cc1 (centres unmarked),-7.15
13,O=C(Nc1ccc(Cl)cc1)Nc1ccc2c(c1)OCO2,12.5
14,Cc1ccc(S(=O)(=O)NC(=NC(C)C)c2ccccc2)cc1,2.11
15,COc1ccc(S(=O)(=O)N2CCN(C(=O)C3CCCCC3)CC2)cc1,17.3
16,O=C(NCCCN1CCCC1=O)c1ccc([N+](=O)[O-])s1,3.09
17,CCc1nnc(NC(=O)c2ccc(-c3cccc(C(F)(F)F)c3)o2)s1,10.7
18,CC1CCN(C(=O)C(=O)Nc2sc3c(c2C(=O)O)CC(C)(C)OC3)CC1,15
